From PubChem BioAssay AID493208 (National Center for Advancing Translational Sciences (NCATS), 2011)
Screen size: about 44,000 compounds; about 340 (0.77%) were called active. Inconclusive results (about 5%) are left out. Calls follow the shape of the dose curve; as a rule, active = well fitted inhibition curve with a large enough effect; inconclusive = small, poorly fitted or top-dose-only effect; inactive = flat fitted curve, though single readings scatter. The list shows a part of the results.

Assay: Acumen qHTS Assay for Inhibitors of the mTORC1 Signaling Pathway in MEF (Tsc2-/-, p53-/-) Cells: Sytravon;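 also: plate controls were DMSO for no effect and rapamycin for full effect; nearly all actives have a fitted effect of over 50% in size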
Details: phospho-rpS6 immunofluorescence/PI, 24 h; series mostly up to 38.3 µM; activity change, negative = inhibition: at the top concentration
Outline: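 Tsc2-/-, p53-/- mouse embryonic fibroblasts (empty-vector line) exposed to compound 24 hrs at 37 C, fixed, immunostained for phospho-rpS6 and counterstained with propidium iodide. Acumen laser scanning gives % positive cells from Alexa 488/PI ratio, thresholded using 7.5 nM rapamycin; PI count gives viability.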

Activity change, negative = inhibition, inactive:
Cc1ccc(C(=O)COC(=O)C(Cc2c[nH]c3ccccc23)NC(=O)c2ccc(C(C)(C)C)cc2)cc1 (configuration not stated) -4.72%, CCN(c1ccccc1)S(=O)(=O)c1ccc(-c2cc(C)no2)s1 -7.78%, Cc1cc(C)cc(NC(=O)CSc2nc(=O)n(Cc3ccccn3)c3c2CCC3)c1 -5.61%, CCOC(=O)C(C)Sc1nc(-c2ccccc2Cl)cc(-c2ccccc2)c1C#N (configuration not stated) 1.15%, Cc1ccccc1C(=O)Nc1cccc(C(=O)OCc2cc(=O)n3ccsc3n2)c1 1.23%, Cc1ccc2[nH]c(=O)c(CN(C(=O)c3cccc(Cl)c3)C(C)(C)C)cc2c1 -5.44%, COc1ccc(-n2cc(-c3ccccc3)c3c(NC4CCCC4)ncnc32)cc1 11%, Cc1cccc(Oc2nc3c(c(=O)n(C)c(=O)n3C)n2Cc2ccccc2)c1C 4.17%, Cc1cccc(C)c1OCc1cc(=O)n2c3c(sc2n1)CCCC3 -1.02%, Cc1cc(C)cc(NC(=O)Nc2nnc(N(C)C3CCCCC3)s2)c1 -9.45%, COc1ccccc1-c1noc(CCCC(=O)NCc2ccco2)n1 3.1%, COc1ccc(C(=O)Nc2nnc(C(C)C)s2)cc1OC -6.14%, COc1ccc2sc(N(Cc3cccnc3)C(=O)COc3ccccc3)nc2c1 -0.896%, COc1cc(NC(=O)Cn2c(=O)n(CC3CCCO3)c(=O)c3ccccc32)cc(OC)c1 (configuration not stated) 0.0393%, CCOc1ccc(CCNc2nc3ccccc3n3c(C)nnc23)cc1OCC -7.67%, CCCCc1nn2c(=O)cc(COC(=O)c3ccc(NC(=O)C(CC)CC)cc3)nc2s1 1.96%, Cc1ccc(NC(=O)c2cc3nc(-c4ccccc4)cc(-c4ccccc4)n3n2)cc1 0.791%, Cc1ccc(CNC(=O)c2cnn(-c3cccc(C)c3)c2C2CCN(C(=O)OC(C)(C)C)CC2)cc1 -17.6%, COc1ccc(CCNC(=O)c2ccc(Cn3c(=O)c4ccccc4n(Cc4cccc(C)c4)c3=O)cc2)cc1OC -0.217%, CCC1CCCCN1S(=O)(=O)c1cc(C(=O)Nc2ccc(C)c(F)c2)ccc1F (configuration not stated) -19%, CCOCCCn1c(=N)c(C(=O)NC2CCCC2)cc2c(=O)n3cc(C)ccc3nc21 5.77%, CCn1cnc2c(=O)oc3ccc(S(=O)(=O)Nc4ccc(OC)cc4)cc3c21 17.5%, COc1ccccc1Cc1nc2ccccc2nc1SCC(=O)Nc1cc(Cl)ccc1OC 0.281%, CCc1ccccc1NC(=O)c1nnn(Cc2ccc(Cl)cc2)c1N -12.6%, CCOC(=O)c1c(S(=O)(=O)N2CCC(C(=O)Nc3ccc(C)cc3C)CC2)c(C)n(C)c1C -0.475%, Cc1cc(C)cc(NC(=O)c2cnc3sc(N4CCCC4)nn3c2=O)c1 0.435%, COCCNC(=O)CSc1nc(-c2ccccc2)[nH]c1-c1ccc(OC)cc1 -7.72%, Cc1cc(CN2CCN(c3cccc(C)c3C)CC2)cs1 0%, CCOc1ccc(NC(=O)C2CCCN(S(=O)(=O)c3c(C)noc3/C=C/N(C)C)C2)cc1 (configuration not stated) -25.4%, CCOC(=O)C1=C(CN2CCN(c3ccc(OC)cc3)CC2)NC(=O)NC1c1ccc(Cl)cc1 (configuration not stated) 7.11%, COc1cccc(-n2c(SCC(=O)Nc3nnc(C)s3)nc3c([nH]c4ccccc43)c2=O)c1 0.519%, Fc1ccc2[nH]c(-c3cccs3)cc2c1 3.02%, CC(C)Cn1c(=O)c2sccc2n2c(CCCC(=O)N3CCN(c4ccc(F)cc4)CC3)nnc12 -3.32%, O=C(Nc1cccc(C(F)(F)F)c1)c1cc2nc(-c3ccc4c(c3)OCO4)cc(C(F)(F)F)n2n1 -2.73%, Cc1ccc(Cn2cc(C(=O)c3ccc4c(c3)OCO4)c(=O)c3cc(C)ccc32)cc1 -7.74%, COc1ccc(C)cc1NC(=O)N1CC(C)Sc2ccccc21 (configuration not stated) -0.264%, Cc1ccc(-c2nc(CSc3nncn4c3cc3occc34)c(C)o2)cc1 -0.651%, NCCc1nc2cccnc2n1-c1ccccc1 0%, Cc1ccc(C)c(NC(=O)Cn2c(=O)n(-c3ccc(CC(=O)NCC4CCCO4)cc3)c(=O)c3ccccc32)c1 (configuration not stated) -1.39%, Cc1ccc(OCC(=O)NCC2(N(C)C)CCCCC2)cc1C -6.34%, CCCOc1ccc(C(=O)NCC2OCCc3ccccc32)cc1 (configuration not stated) -0.494%, Cc1ccc(NC(=O)c2c(C)nc3sc(C(=O)Nc4ccc(F)cc4)c(N)c3c2-c2ccc(C)o2)c(C)c1 -0.286%, CC1CN(C(=O)CCC(=O)Nc2cc(F)ccc2F)c2ccccc2S1 (configuration not stated) -5.02%, COc1ccc(C(=O)Nc2ccc3oc(-c4ccc(F)cc4Cl)nc3c2)cc1 -1.06%, COc1ccc(-n2c(SCC(=O)N3CCc4ccccc43)nc3c([nH]c4ccccc43)c2=O)cc1 3.66%, CCOC(=O)C1CCCN(C(=O)Cn2ncc3c(C)n(Cc4ccccc4Cl)c(C)c3c2=O)C1 (configuration not stated) -12.8%, CCc1ccc(CNC(=O)c2cc3ccccn3n2)cc1 -2.52%, CCCc1nc2ccccc2n1CC(O)COc1ccc(C(=O)OC)cc1 (configuration not stated) 13.6%, CCC1CCCCN1S(=O)(=O)c1ccc(C(=O)Nc2sc3c(c2C(N)=O)CCC3)cc1 (configuration not stated) 0.203%, O=C(CSc1nnc(-c2ccccc2F)o1)Nc1cccc(C(F)(F)F)c1 0.154%, O=C(Nc1ccc(Cl)cc1F)c1cnc2sc(N3CCOCC3)nn2c1=O -11.7%, COc1ccc(C2C(C(=O)Nc3ccc(Cl)cc3)=C(C)Nc3nc(SCc4cccc(C)c4)nn32)cc1OC (configuration not stated) -2.72%, COCCCN1C(=O)c2ccccc2CC1(C)C(=O)NC1CCCCC1 (configuration not stated) -8.82%, COc1ccc(-c2nc(C)c(CCNC(=O)c3cccs3)s2)cc1OC -2.36%, COc1ccccc1CNc1cc(C)nc2nc(-c3ccc(C)cc3)nn12 -9.03%, CC(C)(C)OC(=O)N1CCC(c2c(C(=O)N3CCN(c4ccccn4)CC3)cnn2-c2ccccc2)CC1 -5.45%, c1ccc(-c2noc(-c3cccnc3NCc3ccco3)n2)cc1 1.83%, COCCNC(=O)Cn1c(=O)n(CCCCCC(=O)NCc2ccccc2Cl)c(=O)c2sccc21 6.87%, Cc1cccc(Cn2c(SCc3ccc(C(=O)NCc4ccccc4F)cc3)nc3ccncc32)c1 -5.65%, Cc1ccc(NC(=O)Cn2c(=O)oc3cc(S(=O)(=O)N4CCCCC4)ccc32)c(Cl)c1 -12.2%, CCN(CC)CCCNC(=O)CCCn1ncn2c(cc3occc32)c1=O 0.229%, COc1ccc(CN(C(=O)c2cc3ccccc3oc2=O)C2CCS(=O)(=O)C2)cc1OC (configuration not stated) 0.871%
